# The supplement of paper PMC4604168 (melanoma cell lines)
# Some of the results follow. Single values are uncertain, as repeats are few or missing.
# Assays:
# Assay in all cases: cell count relative to DMSO control; melanoma cells; higher = more viable cells
# Conditions in all cases: library dose: low library concentration; 72 h
# MZ2-MEL = tested on: MZ2-MEL
# MeWo = tested on: MeWo
# RPMI7951 = tested on: RPMI7951
# RVH-421 = tested on: RVH-421
# SkMel28 = tested on: SkMel28
# SkMel30 = tested on: SkMel30
# SkMel5 = tested on: SkMel5
# UACC257 = tested on: UACC257
# UACC62 = tested on: UACC62
# SkMel2 = tested on: SkMel2
# 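Further: cell number obtained by counting DAPI-stained nuclei in high-throughput microscope images with image analysis software, screen run in 1,536-well plates.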
SMILES,cell count (MZ2-MEL) [%],cell count (MeWo) [%],cell count (RPMI7951) [%],cell count (RVH-421) [%],cell count (SkMel28) [%],cell count (SkMel30) [%],cell count (SkMel5) [%],cell count (UACC257) [%],cell count (UACC62) [%],cell count (SkMel2) [%]
"Cn1nnc2c(C(N)=O)ncn2c1=O [temozolomide] + Cn1cc(/C=C2\C(=O)Nc3cccnc32)c2ccccc21 [GW441756] (first compound 2 µM, partner dose 0.4 µM)",84.4,108,98.2,91.1,77.3,78.1,78.9,106,72.7,–
"Cc1cc(N2CCOCC2)cc2[nH]c(-c3c(NC[C@@H](O)c4cccc(Cl)c4)cc[nH]c3=O)nc12 + COc1cc2ncnc(Nc3ccc(Oc4ccccc4)cc3)c2cc1OC [SrcI1] (first compound 0.2 µM, partner dose 2 µM)",99,79.5,116,110,89.3,85.3,89.4,81.2,107,–
"Cc1cc(N2CCOCC2)cc2[nH]c(-c3c(NC[C@@H](O)c4cccc(Cl)c4)cc[nH]c3=O)nc12 + O=C(Nc1ccccc1)c1cc([N+](=O)[O-])ccc1Cl [GW9662] (first compound 0.2 µM, partner dose 2 µM)",103,89.9,135,105,110,101,95.7,83.5,84.2,–
"Cc1cc(N2CCOCC2)cc2[nH]c(-c3c(NC[C@@H](O)c4cccc(Cl)c4)cc[nH]c3=O)nc12 + Cc1cc([N+](=O)[O-])ccc1NS(=O)(=O)c1cc(Cl)ccc1Cl [FH535] (first compound 0.2 µM, partner dose 1 µM)",98.1,86.2,102,98.8,94.2,79.4,82,66.5,89,–
"O=C(Nc1ccccc1)c1cc([N+](=O)[O-])ccc1Cl + Oc1nc(-c2ccc(C(F)(F)F)cc2)nc2c1CSCC2 [XAV939] (first compound 2 µM, partner dose 2 µM)",97.2,83.3,101,79.3,91.8,99.6,88,91.2,89,–
"Cn1nnc2c(C(N)=O)ncn2c1=O [temozolomide] + COc1ccc(COc2ccc(Cc3cnc(N)nc3N)cc2OC)cc1 [GW2580] (first compound 2 µM, partner dose 1 µM)",85.7,100,102,92.8,69,102,90.4,59,82.8,–
"Cn1nnc2c(C(N)=O)ncn2c1=O [temozolomide] + COc1cc(N2CCC(N3CCN(C)CC3)CC2)ccc1Nc1ncc(Cl)c(Nc2ccccc2S(=O)(=O)C(C)C)n1 [NVP-TAE684] (first compound 2 µM, partner dose 0.08 µM)",85.7,83.6,93.2,90.9,96,77.5,87.1,95.4,91.6,–
"Cn1nnc2c(C(N)=O)ncn2c1=O [temozolomide] + COC(=O)c1sccc1S(=O)(=O)Nc1ccc(Nc2ccccc2)cc1OC [GSK0660] (first compound 2 µM, partner dose 1 µM)",82.8,109,98.4,117,96.5,104,98.2,84.7,81.9,–
"Cn1nnc2c(C(N)=O)ncn2c1=O [temozolomide] + O=C1NC(=O)/C(=C/c2ccc(-c3ccc(F)cc3O)o2)S1 [AS252424] (first compound 2 µM, partner dose 1 µM)",84.4,108,88.9,94.3,75.1,72.9,81.8,83.8,80.9,–
"Cn1nnc2c(C(N)=O)ncn2c1=O [temozolomide] + O=C(Nc1ccccc1)c1cc([N+](=O)[O-])ccc1Cl [GW9662] (first compound 2 µM, partner dose 2 µM)",93.2,95.2,104,90.7,80.2,72.1,93.7,88.6,76.7,–
"O=C(Nc1ccccc1)c1cc([N+](=O)[O-])ccc1Cl + CCCCCCCCCCCC1=C(O)C(=O)C=C(O)C1=O [Embelin] (first compound 2 µM, partner dose 1.2 µM)",90.9,107,122,90.5,105,92.1,96.1,91.2,87.8,–
"Cn1nnc2c(C(N)=O)ncn2c1=O [temozolomide] + CC(C)CCN1c2nc(Nc3cc(F)c(O)c(F)c3)ncc2N(C)C(=O)C1C [BID1870] (first compound 2 µM, partner dose 0.2 µM)",97.5,96.8,127,97.4,84.4,73.6,101,93.1,79.7,–
"O=C(O)c1ccc2c(c1)nc(Nc1cccc(Cl)c1)c1ccncc12 + c1cc(-c2cnn3cc(-c4ccc(OCCN5CCCCC5)cc4)cnc23)ccn1 [Dorsomorphin] (first compound 0.4 µM, partner dose 0.4 µM)",–,78.3,109,101,92.9,84.1,93.7,76.9,94.7,–
"O=C(Nc1cc(C(F)(F)F)cc(C(F)(F)F)c1)c1cc(Cl)ccc1O + COc1ccc2c(c1)CCC1C2CCC2(C)C(NCCCCCCN3C(=O)C=CC3=O)CCC12 [U73122] (first compound 0.016 µM, partner dose 0.4 µM)",–,104,85.8,89.4,86.6,126,98.1,124,98.6,103
"O=C(O)[C@@H]1[O][Sb](=[O])([O][Sb]2(=[O])[O][C@H]([C@H](O)CO)[C@H](O)[C@H](C(=O)O)[O]2)[O][C@H]([C@H](O)CO)[C@@H]1O (some centres not stated) [stibogluconate] + Clc1ccc(Nc2nnc(Cc3ccncc3)c3ccccc23)cc1 [vatalanib] (first compound 2 µM, partner dose 2 µM)",89.7,89.5,112,112,105,113,–,–,106,–
"O=C(Nc1cc(C(F)(F)F)cc(C(F)(F)F)c1)c1cc(Cl)ccc1O + C=CCn1c(=O)c2cnc(Nc3ccc(N4CCN(C)CC4)cc3)nc2n1-c1cccc(C(C)(C)O)n1 [MK1775] (first compound 0.016 µM, partner dose 0.02 µM)",–,92.3,113,98,85.7,97.2,89.9,84.9,92.4,100
"O=C(O)[C@@H]1[O][Sb](=[O])([O][Sb]2(=[O])[O][C@H]([C@H](O)CO)[C@H](O)[C@H](C(=O)O)[O]2)[O][C@H]([C@H](O)CO)[C@@H]1O (some centres not stated) [stibogluconate] + Cn1cncc1[C@@](N)(c1ccc(Cl)cc1)c1ccc2c(c1)c(-c1cccc(Cl)c1)cc(=O)n2C [tipifarnib] (first compound 2 µM, partner dose 0.01 µM)",–,102,116,83,101,122,107,73.7,73.3,88.5
"O=C(Nc1cc(C(F)(F)F)cc(C(F)(F)F)c1)c1cc(Cl)ccc1O + Cc1cc([N+](=O)[O-])ccc1NS(=O)(=O)c1cc(Cl)ccc1Cl [FH535] (first compound 0.016 µM, partner dose 1 µM)",–,94.1,95.3,86.9,90.3,98.6,78.6,76,85.7,98.8
"O=C(Nc1cc(C(F)(F)F)cc(C(F)(F)F)c1)c1cc(Cl)ccc1O + Cn1c(Nc2ccc(C(F)(F)F)cc2)nc2cc(Oc3ccnc(-c4ncc(C(F)(F)F)[nH]4)c3)ccc21 [CHIR265] (first compound 0.016 µM, partner dose 0.08 µM)",–,85.6,67.9,77,72,63,–,–,59.9,83.6
"O=C(O)c1ccc2c(c1)nc(Nc1cccc(Cl)c1)c1ccncc12 + Cn1cc(/C=C2\C(=O)Nc3cccnc32)c2ccccc21 [GW441756] (first compound 0.4 µM, partner dose 0.4 µM)",–,102,103,99.8,102,99.1,82.5,85.1,89.4,–
"O=C(Nc1ccccc1)c1cc([N+](=O)[O-])ccc1Cl + O=S(=O)(c1ccccc1)N(CC(F)(F)F)c1ccc(C(O)(C(F)(F)F)C(F)(F)F)cc1 [T0901317] (first compound 2 µM, partner dose 1.4 µM)",–,85.2,110,84.8,82,91.3,78.4,93.7,83.5,–
"O=C(O)[C@@H]1[O][Sb](=[O])([O][Sb]2(=[O])[O][C@H]([C@H](O)CO)[C@H](O)[C@H](C(=O)O)[O]2)[O][C@H]([C@H](O)CO)[C@@H]1O (some centres not stated) [stibogluconate] + CO[C@H]1C[C@@H]2CC[C@@H](C)[C@@](O)(O2)C(=O)C(=O)N2CCCC[C@H]2C(=O)O[C@H]([C@H](C)C[C@@H]2CC[C@@H](OCCO)[C@H](OC)C2)CC(=O)[C@H](C)/C=C(\C)[C@@H](O)[C@@H](OC)C(=O)[C@H](C)C[C@H](C)/C=C/C=C/C=C/1C [everolimus] (first compound 2 µM, partner dose 0.02 µM)",80.5,77.5,102,85,45.5,68.7,–,–,74.5,–
"Cc1cc(N2CCOCC2)cc2[nH]c(-c3c(NC[C@@H](O)c4cccc(Cl)c4)cc[nH]c3=O)nc12 + CC(C)CCN1c2nc(Nc3cc(F)c(O)c(F)c3)ncc2N(C)C(=O)C1C [BID1870] (first compound 0.2 µM, partner dose 0.2 µM)",–,81.5,111,91.8,107,60.8,94.3,79.9,97.7,–
